# Results reported in the supplement of paper PMC8728848.
# The list shows a part of the results.
# B1: Blon2468mut (Bifidobacterium longum) (protein)
# chain: MTFIKQMMPRYVASMTAGIVAAAMAATCAFAPVANADAVSPTQETIQSTGRHFMVYYRAWRDVTMKGVNTDLPDDNWISMYDIPYGVDVVNIFSYVPSGQEEQAQPFYDKLKSDYAPYLHSRGIKLVRGIDYTGVAVNGFRTFMKEQNKTESEATEADYDAYAKQVIDKYMISVGLDGLDIDMQAHPNDADVKISDNVIRALSKHIGPKSAKPDTTMFLYDTNGSYLNPFKNVAECFDYVAYQQYGSSSDRTARAAADYQPYIGNEFVPGLTFPEEGDMNNRWYDATEPYEESHFYQVASYVREHNLGGMFVYALDRDGRNYDEDLRRIVPSNLLWTKTAIAESEGMALDTAKTAANHYLDRMSLRQVIDDNAASADKARDMVGKAANLYETNKAVLGGDYGEGFSNTYDPTLEAGLLGIDISVLQQQIDKSSEIIGADTAESDAKTALRMARDAAIDGLTGKIYTADQVSAWSQALKAALDATVPVPTPDSTDQNGNRDKVTNHKVQGQPKQLSATGISTDIIVAVGVTLAIAGVALSLSRKLS
# How the values were obtained:
# Experiment in all cases: glycan array binding signal (z-score within array); higher = stronger binding
# Settings in all cases: glycan notation: IUPAC condensed, linker removed
# [1] = molecular target: Fuc(a1-2)Gal(b1-4)GlcNAc(b1-3)Gal(b1-4)GlcNAc(b1-3)Gal(b1-4)GlcNAc
# How it was run: (§1)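 The binding signal is a Z-score computed within each array and averaged over linkers. Arrays of the same protein sequence at different concentrations or buffers were also averaged together. Data originate from 3228 arrays in the Consortium for Functional Glycomics database, kept only where the protein sequence was available.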
# [2] = molecular target: Fuc(a1-2)Gal(b1-4)GlcNAc(b1-3)GalNAc
# How it was run: as §1
# [3] = molecular target: Fuc(a1-2)Gal(b1-4)GlcNAc(b1-3)[Fuc(a1-2)Gal(b1-4)GlcNAc(b1-6)]GalNAc
# How it was run: as §1
# [4] = molecular target: Fuc(a1-2)Gal(b1-4)GlcNAc(b1-3)[Fuc(a1-3)[Gal(b1-4)]GlcNAc(b1-6)]Gal(b1-4)Glc
# How it was run: as §1
# [5] = molecular target: Fuc(a1-2)Gal(b1-4)GlcNAc(b1-6)GalNAc
# How it was run: as §1
# [6] = molecular target: Fuc(a1-2)Gal(b1-4)GlcNAc6S
# How it was run: as §1
# [7] = molecular target: Fuc(a1-2)Gal(b1-4)[Fuc(a1-3)]GlcNAc
# How it was run: as §1
# [8] = molecular target: Fuc(a1-2)Gal(b1-4)[Fuc(a1-3)]GlcNAc(b1-2)Man(a1-3)[Fuc(a1-2)Gal(b1-4)[Fuc(a1-3)]GlcNAc(b1-2)Man(a1-6)]Man(b1-4)GlcNAc(b1-4)[Fuc(a1-6)]GlcNAc
# How it was run: as §1
# [9] = molecular target: Fuc(a1-2)Gal(b1-4)[Fuc(a1-3)]GlcNAc(b1-2)[Fuc(a1-2)Gal(b1-4)[Fuc(a1-3)]GlcNAc(b1-4)]Man(a1-3)[Fuc(a1-2)Gal(b1-4)[Fuc(a1-3)]GlcNAc(b1-2)Man(a1-6)]Man(b1-4)GlcNAc(b1-4)GlcNAc
# How it was run: as §1
# [10] = molecular target: Fuc(a1-2)Gal(b1-4)[Fuc(a1-3)]GlcNAc(b1-3)Gal(b1-4)[Fuc(a1-3)]GlcNAc
# How it was run: as §1
# [11] = molecular target: Fuc(a1-2)Gal(b1-4)[Fuc(a1-3)]GlcNAc(b1-3)Gal(b1-4)[Fuc(a1-3)]GlcNAc(b1-3)Gal(b1-4)[Fuc(a1-3)]GlcNAc
# How it was run: as §1
# [12] = molecular target: Fuc(a1-2)Gal(b1-4)[Fuc(a1-3)]GlcNAc(b1-3)GalNAc
# How it was run: as §1
# [13] = molecular target: Fuc(a1-2)Gal(b1-4)[Fuc(a1-3)]GlcNAc(b1-3)[Neu5Ac(a2-6)Gal(b1-4)GlcNAc(b1-6)]Gal(b1-4)Glc
# How it was run: as §1
# [14] = molecular target: Fuc(a1-2)Gal3S(b1-4)GlcNAc
# How it was run: as §1
# [15] = molecular target: Fuc(a1-2)Gal6S(b1-3)GlcNAc
# How it was run: as §1
# [16] = molecular target: Fuc(a1-2)Gal6S(b1-3)GlcNAc6S
# How it was run: as §1
# Fuc(a1-2)Gal6S(b1-4)Glc = molecular target: Fuc(a1-2)Gal6S(b1-4)Glc
# How it was run: as §1
# [17] = molecular target: Fuc(a1-2)Gal6S(b1-4)Glc6S
# How it was run: as §1
# Fuc(a1-2)[Gal(a1-3)]Gal = molecular target: Fuc(a1-2)[Gal(a1-3)]Gal
# How it was run: as §1
# [18] = molecular target: Fuc(a1-2)[Gal(a1-3)]Gal(b1-3)GalNAc
# How it was run: as §1
# [19] = molecular target: Fuc(a1-2)[Gal(a1-3)]Gal(b1-3)GalNAc(b1-3)Gal(a1-4)Gal(b1-4)Glc
# How it was run: as §1
# [20] = molecular target: Fuc(a1-2)[Gal(a1-3)]Gal(b1-3)GlcNAc
# How it was run: as §1
# [21] = molecular target: Fuc(a1-2)[Gal(a1-3)]Gal(b1-3)GlcNAc(b1-2)Man(a1-3)[Fuc(a1-2)[Gal(a1-3)]Gal(b1-3)GlcNAc(b1-2)Man(a1-6)]Man(b1-4)GlcNAc(b1-4)GlcNAc
# How it was run: as §1
# [22] = molecular target: Fuc(a1-2)[Gal(a1-3)]Gal(b1-3)GlcNAc(b1-2)Man(a1-3)[Fuc(a1-2)[Gal(a1-3)]Gal(b1-3)GlcNAc(b1-2)Man(a1-6)]Man(b1-4)GlcNAc(b1-4)[Fuc(a1-6)]GlcNAc
# How it was run: as §1
# [23] = molecular target: Fuc(a1-2)[Gal(a1-3)]Gal(b1-3)GlcNAc(b1-3)GalNAc
# How it was run: as §1
# [24] = molecular target: Fuc(a1-2)[Gal(a1-3)]Gal(b1-3)GlcNAc(b1-6)GalNAc
# How it was run: as §1
# [25] = molecular target: Fuc(a1-2)[Gal(a1-3)]Gal(b1-4)Glc
# How it was run: as §1
# [26] = molecular target: Fuc(a1-2)[Gal(a1-3)]Gal(b1-4)GlcNAc
# How it was run: as §1
# [27] = molecular target: Fuc(a1-2)[Gal(a1-3)]Gal(b1-4)GlcNAc(b1-2)Man
# How it was run: as §1
# [28] = molecular target: Fuc(a1-2)[Gal(a1-3)]Gal(b1-4)GlcNAc(b1-2)Man(a1-3)[Fuc(a1-2)[Gal(a1-3)]Gal(b1-4)GlcNAc(b1-2)Man(a1-6)]Man(b1-4)GlcNAc(b1-4)GlcNAc
# How it was run: as §1
binder,measurement,setting,value
B1,glycan array binding signal (z-score),[1],-0.043
same,glycan array binding signal (z-score),[2],-0.034
same,glycan array binding signal (z-score),[3],-0.08
same,glycan array binding signal (z-score),[4],-0.086
same,glycan array binding signal (z-score),[5],-0.025
same,glycan array binding signal (z-score),[6],-0.08
same,glycan array binding signal (z-score),[7],-0.065
same,glycan array binding signal (z-score),[8],-0.014
same,glycan array binding signal (z-score),[9],-0.036
same,glycan array binding signal (z-score),[10],-0.051
same,glycan array binding signal (z-score),[11],-0.079
same,glycan array binding signal (z-score),[12],-0.029
same,glycan array binding signal (z-score),[13],-0.082
same,glycan array binding signal (z-score),[14],-0.049
same,glycan array binding signal (z-score),[15],-0.018
same,glycan array binding signal (z-score),[16],0.078
same,glycan array binding signal (z-score),Fuc(a1-2)Gal6S(b1-4)Glc,-0.041
same,glycan array binding signal (z-score),[17],-0.073
same,glycan array binding signal (z-score),Fuc(a1-2)[Gal(a1-3)]Gal,-0.015
same,glycan array binding signal (z-score),[18],-0.076
same,glycan array binding signal (z-score),[19],-0.048
same,glycan array binding signal (z-score),[20],-0.06
same,glycan array binding signal (z-score),[21],-0.079
same,glycan array binding signal (z-score),[22],-0.055
same,glycan array binding signal (z-score),[23],-0.085
same,glycan array binding signal (z-score),[24],-0.055
same,glycan array binding signal (z-score),[25],-0.073
same,glycan array binding signal (z-score),[26],-0.08
same,glycan array binding signal (z-score),[27],-0.028
same,glycan array binding signal (z-score),[28],-0.015
